Over roughly 33,000 sequences, “E-score (-0.5 to 0.5)” has its median near -0.016; the highest 2% begin near 0.31. This is one part of the list.
target: Cst6 (UniProt P40535); test: PBM E-score (8-mer binding enrichment) (E-score (-0.5 to 0.5)); higher = stronger / more preferred TF binding; most listed sequences are background and not binding sites; conditions: protein concentration: 200 nM; construct: GST-DNA-binding domain
Procedure, shortened: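 Yeast transcription factors carrying a GST tag, as full-length proteins or DNA-binding domains, were produced by PURExpress in vitro transcription/translation. About 100-200 nM protein was applied to universal all-10-mer Agilent arrays, double-stranded by primer extension on fresh or once-stripped slides. Bound protein was detected with fluorescent anti-GST, and scans were normalised with masliner. The Universal PBM Analysis Suite gave each ungapped eight-base word, pooled with its reverse complement, an E-score, a modified Wilcoxon-Mann-Whitney statistic.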

Sequence	PBM E-score
GACACGTA	0.184
CAGCGTAG	-0.178
CATGTCGG	-0.0904
AAGGACCG	-0.0915
AGCGTCTC	-0.321
CATTCAAG	-0.183
CTACTTAA	-0.0101
CCTCCGTA	-0.179
AGTCCTAG	-0.275
GAGTATGC	-0.0395
GAATGGCC	-0.195
CTCCGGTC	-0.347
CATCGAGC	-0.135
CAGTCGTC	-0.167
CCTCCTGA	-0.14
ATACAGTA	0.0925
CCGGGCAG	-0.205
CAGCCGCG	-0.00473
TATTTCCA	0.0255
CGGAGCCC	-0.403
AGAAGACA	0.00595
AGGAGAGC	-0.31
CTATAGCA	0.0171
AAGCGTTG	-0.0825
ACCGTGAC	0.291

Sequence	PBM E-score
ACTTGACC	-0.269
CGTGGTAC	-0.143
AAAAATGG	0.201
TCCATACA	0.0501
CTTATTTA	0.0478
TAGGCCGA	-0.308
CAACATGC	0.163
CTGTTTTA	0.0619
CGAGTGGA	-0.231
AAAAGGTC	-0.131
GCACCGGA	-0.237
CCAATACC	-0.182
CGTCCGTA	0.171
ACCTAGAT	-0.0922
CTTGTCCA	-0.0587
CAACAATC	0.197
CCCTCTAA	-0.161
CAACTCGC	0.00649
ATAGCGAA	0.187
GTCACAGA	0.234
CACGTACG	0.151
AGACGGTC	-0.164
TGAGAGAA	0.236
CCAAGTGG	-0.215
TATATTCA	0.194

Sequence	PBM E-score
GTATTGCA	0.0191
CCCGATAA	-0.0989
TCTGTGAA	0.0699
CAGTTATA	-0.0382
TAGTACCA	-0.0672
CGCTCGGA	-0.105
AACCCCTC	-0.279
CCGTAGAC	-0.153
ACCTTCCT	-0.15
CAATAACG	0.19
CAAAAAAA	0.32
CATCAGCG	0.044
TATATGGA	0.0562
ACGTGTTC	0.0516
TACGCTAA	0.103
AGTTCCAC	-0.145
ATCCAAAC	0.0285
CGGCGCGC	0.242
AACCAGCC	-0.137
AGATTCAC	-0.122
CCTTGCCC	-0.127
AGCCAAGG	-0.0791
AAAACTTA	0.217
TCCGTCAA	0.124
ATAACTTG	0.0655

Sequence	PBM E-score
ATTTACAA	0.254
AATTTCAG	0.144
AATAACCG	0.0476
AGGGGGGC	-0.41
GAAGCGGC	0.0855
AACTAGCC	-0.211
GACGTGAA	0.142
ACAGCAAG	0.0827
ACGGCCCC	0.153
CTAGTCGC	-0.299
CAGGAACA	-0.155
CTAGACAA	0.0226
GTTTGTTA	0.198
AAACTGCG	-0.0237
ATGCGCGG	0.113
ATTGATCG	0.0409
ATGGCAGA	0.0116
ATGATGCG	0.296
CCGCGCCG	0.198
CCCGAGTC	-0.141
CAACGTGA	-0.00233
CACACCAC	-0.00864
AATCCTTC	-0.119
TACGTTCA	0.235
GGTCCGAA	0.0255

Sequence	PBM E-score
ACACCAAC	-0.0059
GCGGAACC	-0.0959
ACGCTACA	0.0647
TCACAGGA	0.0449
CCATCTTC	0.0366
TACATATA	0.254
AGACTAGA	-0.153
TGTTGTAA	0.255
CAGTCCAA	-0.216
ACACGAGA	-0.107
ATGGGCCA	-0.128
AATATAAC	0.17
AAATGGTT	0.0669
CGCCCGAC	-0.0607
CTAGTACC	-0.239
GTAGGATA	-0.0496
ACGAGAAG	0.00653
AATCCACG	0.00234
TAAGCATA	0.128
ATGAAGTC	0.237
ACGTGATA	0.208
AAAAAAGA	0.118
CTACTCGA	0.00648
TCACCGAA	0.167
AATTAGCA	0.209

Sequence	PBM E-score
AGCGGACA	-0.187
ACATAAAC	0.27
AATAAACC	0.166
ATTAACGC	0.0112
TCGCCAGA	-0.0255
AGACAGCA	0.0272
CATACTCG	0.0887
ACCGAAAG	-0.0323
AAGTGTTA	-0.00598
TACTACAA	0.231
TCAATACA	0.217
AATGAAAG	0.168
AAGAGTCA	-0.119
AGCGAGTG	0.0192
GTGTGCTA	-0.0299
ATAACACC	0.106
CATGCGTC	0.0231
ATATCTCG	0.0254
AGCCGAGC	-0.0393
GAGCGAAC	-0.239
CGGTATGA	0.267
GAGCGTCA	0.271
GGTGTCTA	0.0529
AGGGTAGC	-0.17
GGGTGAAA	0.0534

Sequence	PBM E-score
AGATTAAG	0.0538
AGTCGACG	0.145
ATTAACTC	0.198
TGGCGCAA	0.0721
GCCGTGAA	0.184
AGAGCACC	-0.301
TGTTCTAA	0.103
AACGGGAC	-0.193
CACCCCGA	-0.145
GCACGTCC	-0.0855
CGCGCGCA	0.231
ATCCTCGC	-0.0897
ATAAGCAG	0.0195
ACCCGGGC	-0.281
ACTATACC	0.0231
CGTACGGA	0.168
CCTAGAGG	-0.356
AAGTTACT	0.0465
GTTGACCA	0.00334
ACTACCTA	0.0222
CCCTAGCA	-0.251
GCTCTGCC	-0.23

Reference: the supplement of paper PMC3334620
